# Whole data set: some 2,900 compounds, median “NF-kB SEAP reporter activity, fold change vs agonist alone” near 0.99, cut for the highest 2% near 2.6. The list shows a part of the results.
# What was measured:
# RAW-Dual [1] = experiment: NF-kB SEAP reporter activity, fold change vs agonist alone; cytotoxicity flag (confluency mask): not cytotoxic; higher = enhanced NF-kB activity
# Method in brief: (§1)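 Supernatant from RAW-Dual macrophages was read after 20 hours for IRF by QuantiLuc luminescence and for NF-κB by QuantiBlue absorbance at 620 nm. The cells (50,000 cells/well in DMEM, 384-well plates, 37 °C, 5% CO2) had received 50 nL of library stock by pin tool and, 1 h later, a PRR agonist. Reporter activity is expressed relative to agonist-alone wells as fold change, and wells were flagged cytotoxic if IncuCyte confluency was under 70% of agonist controls in both mask sets.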
# RAW-Dual [2] = experiment: NF-kB SEAP reporter activity, fold change vs agonist alone; higher = enhanced NF-kB activity; settings: library stock concentration (final ~1000-fold dilution): 10 mM
# Method in brief: as §1
# RAW-Dual [3] = experiment: NF-kB SEAP reporter activity, fold change vs agonist alone; cytotoxicity flag (confluency mask): cytotoxic (confluency <70% of control); higher = enhanced NF-kB activity
# Method in brief: as §1
# [4] = agonist: ODN 1826 (TLR9) 0.5 ug/mL
# [5] = agonist: Pam2CSK4 (TLR2/6) 0.1 ug/mL
# [6] = agonist: Pam3CSK4 (TLR2/1) 0.1 ug/mL
# [7] = cytotoxicity flag (confluency mask): not cytotoxic, agonist: Imiquimod (TLR7) […]
# [8] = cytotoxicity flag (confluency mask): not cytotoxic, agonist: MPLA (TLR4) […]
compound,measurement,setting,value
CCCCCCOC(=O)c1cc(O)c(=O)c2c(O)c(O)c(OC)cc2c1 (library stock concentration (final ~1000-fold dilution): 10 mM),NF-kB SEAP reporter activity,RAW-Dual [1]; agonist: LPS (TLR4) 0.1 ug/mL,0.614
same,NF-kB SEAP reporter activity,RAW-Dual [1]; [4],0.459
same,NF-kB SEAP reporter activity,RAW-Dual [1]; [5],0.599
same,NF-kB SEAP reporter activity,RAW-Dual [1]; [6],0.895
CS(=O)(=O)Nc1cc2occ(NC=O)c(=O)c2cc1Oc1ccccc1 (library stock concentration (final ~1000-fold dilution): 10 mM),NF-kB SEAP reporter activity,RAW-Dual [1]; agonist: LPS (TLR4) 0.1 ug/mL,0.846
same,NF-kB SEAP reporter activity,RAW-Dual [1]; [4],0.884
same,NF-kB SEAP reporter activity,RAW-Dual [1]; [5],1.04
same,NF-kB SEAP reporter activity,RAW-Dual [1]; [6],0.819
CS(=O)(=O)Nc1cc2occ(NC=O)c(=O)c2cc1Oc1ccccc1,NF-kB SEAP reporter activity,RAW-Dual [2]; [7],0.915
same,NF-kB SEAP reporter activity,RAW-Dual [2]; [8],1.01
CC(C)NC(=O)COc1cccc(-c2nc(Nc3ccc4[nH]ncc4c3)c3ccccc3n2)c1,NF-kB SEAP reporter activity,RAW-Dual [2]; [7],0.95
same,NF-kB SEAP reporter activity,RAW-Dual [2]; [8],1.71
CC(C)NC(=O)COc1cccc(-c2nc(Nc3ccc4[nH]ncc4c3)c3ccccc3n2)c1 (library stock concentration (final ~1000-fold dilution): 10 mM),NF-kB SEAP reporter activity,RAW-Dual [1]; agonist: LPS (TLR4) 0.1 ug/mL,1.31
same,NF-kB SEAP reporter activity,RAW-Dual [1]; [4],1.4
same,NF-kB SEAP reporter activity,RAW-Dual [1]; [5],0.383
same,NF-kB SEAP reporter activity,RAW-Dual [1]; [6],0.718
CCS(=O)(=O)Nc1ccc(Oc2ccc(F)cc2F)c(-c2cn(C)c(=O)c3[nH]ccc23)c1,NF-kB SEAP reporter activity,"RAW-Dual [2]; cytotoxicity flag (confluency mask): cytotoxic (confluency <70% of control), agonist: Imiquimod (TLR7) […]",1.54
same,NF-kB SEAP reporter activity,"RAW-Dual [2]; cytotoxicity flag (confluency mask): cytotoxic (confluency <70% of control), agonist: MPLA (TLR4) […]",2.13
CCS(=O)(=O)Nc1ccc(Oc2ccc(F)cc2F)c(-c2cn(C)c(=O)c3[nH]ccc23)c1 (library stock concentration (final ~1000-fold dilution): 10 mM),NF-kB SEAP reporter activity,RAW-Dual [3]; agonist: LPS (TLR4) 0.1 ug/mL,3.19
same,NF-kB SEAP reporter activity,RAW-Dual [3]; [4],2.18
same,NF-kB SEAP reporter activity,RAW-Dual [3]; [5],0.424
same,NF-kB SEAP reporter activity,RAW-Dual [3]; [6],1.13
CNc1cccc(CCOc2ccc3c(c2)CN(CC(F)(F)F)C(=O)C(CC(=O)O)C3)n1 (stereo unspecified),NF-kB SEAP reporter activity,RAW-Dual [2]; [7],0.935
same,NF-kB SEAP reporter activity,RAW-Dual [2]; [8],1.08
CNc1cccc(CCOc2ccc3c(c2)CN(CC(F)(F)F)C(=O)C(CC(=O)O)C3)n1 (stereo unspecified) (library stock concentration (final ~1000-fold dilution): 10 mM),NF-kB SEAP reporter activity,RAW-Dual [1]; agonist: LPS (TLR4) 0.1 ug/mL,1.02
same,NF-kB SEAP reporter activity,RAW-Dual [1]; [4],0.93
same,NF-kB SEAP reporter activity,RAW-Dual [1]; [5],1.06
same,NF-kB SEAP reporter activity,RAW-Dual [1]; [6],1.21
C=C(C)[C@@H]1CC[C@]2(C(=O)O)CC[C@]3(C)[C@H](CC[C@@H]4[C@@]5(C)CC[C@H](O)C(C)(C)[C@@H]5CC[C@]43C)[C@@H]12,NF-kB SEAP reporter activity,RAW-Dual [2]; [7],0.936
same,NF-kB SEAP reporter activity,RAW-Dual [2]; [8],1.23
C=C(C)[C@@H]1CC[C@]2(C(=O)O)CC[C@]3(C)[C@H](CC[C@@H]4[C@@]5(C)CC[C@H](O)C(C)(C)[C@@H]5CC[C@]43C)[C@@H]12 (library stock concentration (final ~1000-fold dilution): 10 mM),NF-kB SEAP reporter activity,RAW-Dual [1]; agonist: LPS (TLR4) 0.1 ug/mL,0.97
same,NF-kB SEAP reporter activity,RAW-Dual [1]; [4],0.853
same,NF-kB SEAP reporter activity,RAW-Dual [1]; [5],0.741
same,NF-kB SEAP reporter activity,RAW-Dual [1]; [6],0.88
O=c1ccc2cc3ccoc3cc2o1 (library stock concentration (final ~1000-fold dilution): 10 mM),NF-kB SEAP reporter activity,RAW-Dual [1]; agonist: LPS (TLR4) 0.1 ug/mL,1.05
same,NF-kB SEAP reporter activity,RAW-Dual [1]; [4],0.986
same,NF-kB SEAP reporter activity,RAW-Dual [1]; [5],1.12
same,NF-kB SEAP reporter activity,RAW-Dual [1]; [6],1.19
O=c1ccc2cc3ccoc3cc2o1,NF-kB SEAP reporter activity,RAW-Dual [2]; [8],1.15
O=C(Nc1cccc(C(F)(F)F)c1)c1cccc2cc(Oc3cc(CO)ncn3)ccc12 (library stock concentration (final ~1000-fold dilution): 10 mM),NF-kB SEAP reporter activity,RAW-Dual [1]; agonist: LPS (TLR4) 0.1 ug/mL,0.557
same,NF-kB SEAP reporter activity,RAW-Dual [1]; [4],0.378
same,NF-kB SEAP reporter activity,RAW-Dual [1]; [5],0.216
same,NF-kB SEAP reporter activity,RAW-Dual [1]; [6],0.25
O=C(Nc1cccc(C(F)(F)F)c1)c1cccc2cc(Oc3cc(CO)ncn3)ccc12,NF-kB SEAP reporter activity,RAW-Dual [2]; [7],0.543
same,NF-kB SEAP reporter activity,RAW-Dual [2]; [8],0.55
CN(CC(=O)N(Cc1ccc(C2CCCCC2)cc1)c1ccc(C(=O)O)c(O)c1)S(=O)(=O)c1c(F)c(F)c(F)c(F)c1F (library stock concentration (final ~1000-fold dilution): 10 mM),NF-kB SEAP reporter activity,RAW-Dual [1]; agonist: LPS (TLR4) 0.1 ug/mL,0.25
same,NF-kB SEAP reporter activity,RAW-Dual [1]; [4],0.547
same,NF-kB SEAP reporter activity,RAW-Dual [1]; [5],1.09
same,NF-kB SEAP reporter activity,RAW-Dual [1]; [6],0.775
CN(CC(=O)N(Cc1ccc(C2CCCCC2)cc1)c1ccc(C(=O)O)c(O)c1)S(=O)(=O)c1c(F)c(F)c(F)c(F)c1F,NF-kB SEAP reporter activity,RAW-Dual [2]; [7],0.642
same,NF-kB SEAP reporter activity,RAW-Dual [2]; [8],0.778
